The text below walks through data of the supplement of paper PMC10338343.

The assay has as its system MIWI (PIWIL1) piRISC loaded with L1MC piRNA (30 nt). Description: pre-steady-state target cleavage rate (min^-1); MIWI and MILI are mouse PIWI proteins and EfPiwi is from a freshwater sponge; tags in brackets are library labels; higher = faster piRNA-guided slicing of the target. As to conditions: guide: L1MC piRNA 5'p-UAACUAAAUACUAUGCAAGCUGUAGGUCCU
In outline:
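Cleave-'n-Seq: a transcribed, DNA-blocked target RNA library (0.1 nM) was mixed with 1 nM active affinity-purified piRISC carrying one synthetic guide, with or without 500 nM GTSF1 partner protein, in HEPES–potassium acetate buffer at 33 °C for 0–8 or 0–960 min. Uncleaved targets were sequenced and normalised to depth and to weakly complementary targets. Three trials were pooled, and k3 was capped at 0.0001 min^-1. The pre-steady-state cleavage rate came from a burst-and-steady-state fit.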

Setting [1] is: auxiliary factor: 500 nM mouse GTSF1.
Setting [2] is: auxiliary factor: none (no GTSF1).

± gives the standard deviation. The entries are a selection whose mix differs from that of the whole data set.

As for UCCUGGAUGUGCUUGCAUAGUAUAUUAGUUA, the “pre-steady-state target cleavage rate” value runs as follows: under setting [1], 0.0878 ± 0.0097; under setting [2], 0.00721 ± 0.0034.

Take UGGACCUACAGCUUGCAUAGUAUUUUGAAA: the “pre-steady-state target cleavage rate” value reads like this: under setting [1], 0.307 ± 0.034; under setting [2], 0.0092 ± 0.0036.

On to UCCUGGAUGAGCUUGCUUAGUAUUUUGUUA, for which the “pre-steady-state target cleavage rate” value was 0.285 ± 0.022 under setting [1] and 0.0143 ± 0.0037 under setting [2].

UCCUGGAUCAGCUUGCAUAGUAUUAUAGUUA: the “pre-steady-state target cleavage rate” value is, setting by setting: under setting [1], 0.882 ± 0.045; under setting [2], 0.0161 ± 0.0042.

Turning to AGGACCUACAGGUUGCAUAGAAUUUAGUUA, the “pre-steady-state target cleavage rate” value under setting [1] is 0.341 ± 0.03 and the “pre-steady-state target cleavage rate” value under setting [2] stood at 0.016 ± 0.0037.

Take AGGACCUACAGCUUGCUAGUAUUUAGUUA: the “pre-steady-state target cleavage rate” value reads like this: under setting [1], 0.179 ± 0.041; under setting [2], 0.00501 ± 0.0024.

Turning to UCCUGGUACCGCUUGCAUAGUAUUUAGUUA, the “pre-steady-state target cleavage rate” value was found to be 0.516 ± 0.078 under setting [1] and 0.0208 ± 0.005 under setting [2].

Regarding UCCUGGAUGAGCUUGCAUAGUAAUUAGUUA, the “pre-steady-state target cleavage rate” value is, setting by setting: under setting [1], 0.434 ± 0.035; under setting [2], 0.0182 ± 0.0051.

Regarding UCCACCUACAGCUUGCAUACUAUUAAGUUA, the “pre-steady-state target cleavage rate” value runs as follows: under setting [1], 0.158 ± 0.021; under setting [2], 0.00936 ± 0.0018.

As for UCGUCCUACAGCUUGCUUAGUAUUUAGUUA, the “pre-steady-state target cleavage rate” value reads like this: under setting [1], 1.43 ± 0.047; under setting [2], 0.0358 ± 0.0073.

As for UCCUGCUACCAGCUUGCAUAGUAUUUAGUUA, the “pre-steady-state target cleavage rate” value runs as follows: under setting [1], 0.735 ± 0.051; under setting [2], 0.0424 ± 0.0096.

In the case of UCCUGGAUGUGCUUGCAUAGUAUUCUAGUUA, the “pre-steady-state target cleavage rate” value is, setting by setting: under setting [1], 0.211 ± 0.037; under setting [2], 0.0155 ± 0.0049.

Regarding UCCUGGAUCUGCUUGCUUAGUAUUUAGUUA, the “pre-steady-state target cleavage rate” value is, setting by setting: under setting [1], 0.366 ± 0.049; under setting [2], 0.0141 ± 0.0045.

For UCCUGGUACACCUUGCAUAGUAUUUAGUUA, the “pre-steady-state target cleavage rate” value is 0.244 ± 0.048 under setting [1] and 0.0185 ± 0.0042 under setting [2].

Consider UGGACCUACAGCUUGCAUAGUAAUUAGUAA, for which the “pre-steady-state target cleavage rate” value came to 0.422 ± 0.041 under setting [1] and 0.014 ± 0.0044 under setting [2].

With AGGACCUACAGCUUGCAUAGUAUUUGUUA, the “pre-steady-state target cleavage rate” value under setting [1] was found to be 0.51 ± 0.055 and the “pre-steady-state target cleavage rate” value under setting [2] turned out to be 0.00548 ± 0.0028.

Consider UCCUGGAUCAGCUUGCAUAGUAUUGUAGUUA, for which the “pre-steady-state target cleavage rate” value by setting is: under setting [1], 0.585 ± 0.033; under setting [2], 0.0244 ± 0.0045.

In the case of UCCUGGUACUGGUUGCAUAGUAUUUAGUUA, the “pre-steady-state target cleavage rate” value runs as follows: under setting [1], 0.241 ± 0.044; under setting [2], 0.00872 ± 0.0025.

For UCCUCCUACAGCUUGGAUAGUUUUUAGUUA, the “pre-steady-state target cleavage rate” value was determined as 0.358 ± 0.024 under setting [1] and 0.0209 ± 0.0042 under setting [2].

Consider UCGAGCUACAGCUUGCAUAGUAUUUUGUUA, for which the “pre-steady-state target cleavage rate” value by setting is: under setting [1], 1.06 ± 0.06; under setting [2], 0.0528 ± 0.0088.

With UGGAGCUACAGCUUGCAUAGUAUAUAGUUA, the “pre-steady-state target cleavage rate” value worked out at 0.742 ± 0.05 under setting [1] and 0.0311 ± 0.0061 under setting [2].

For UCCUGGUACACCUUGCAUAGUAUAUAGUUA, the “pre-steady-state target cleavage rate” value amounted to 0.555 ± 0.09 under setting [1] and 0.00685 ± 0.0027 under setting [2].

For UCCUGGAUGAGCUUGCAUAGUCUUUAGUUA, the “pre-steady-state target cleavage rate” value runs as follows: under setting [1], 0.372 ± 0.03; under setting [2], 0.0359 ± 0.0096.

Turning to UGGACCUACAGCUAGCAUAGUAUAUAGUUA, the “pre-steady-state target cleavage rate” value by setting is: under setting [1], 0.77 ± 0.049; under setting [2], 0.014 ± 0.0042.

Regarding UCGACCUACAGCUUGCAUAGUAUUUUGAAA, the “pre-steady-state target cleavage rate” value is 0.399 ± 0.03 under setting [1] and 0.0061 ± 0.0028 under setting [2].

Consider “AGGACCUACAGCUUGCAUAGUAUUUAGUUA [g2:g30:cont:t1A]”, for which the “pre-steady-state target cleavage rate” value is, setting by setting: under setting [1], 1.35 ± 0.057; under setting [2], 0.0941 ± 0.015.

As for AGGACCUACAGCUUGCAUAGUAUUUAGCUUA, the “pre-steady-state target cleavage rate” value came to 0.476 ± 0.078 under setting [1] and 0.0351 ± 0.0088 under setting [2].

For the sequence AGGACCUAGAGCUUGCAUAGUAUUUAGAUA, the “pre-steady-state target cleavage rate” value runs as follows: under setting [1], 0.358 ± 0.04; under setting [2], 0.03 ± 0.0081.

On to UCGACCUUGAGCUUGCAUAGUAUUUAGUAA, for which the “pre-steady-state target cleavage rate” value is, setting by setting: under setting [1], 0.727 ± 0.074; under setting [2], 0.0295 ± 0.0071.

On to UCCUGCUACAGGUUGCAUAGUAUAUAGUUA, for which the “pre-steady-state target cleavage rate” value reads like this: under setting [1], 0.819 ± 0.094; under setting [2], 0.00923 ± 0.0028.

On to UCCUGGAUCAGCUUGCAAAGUAUUUUGUUA, for which the “pre-steady-state target cleavage rate” value is 0.561 ± 0.04 under setting [1] and 0.0138 ± 0.0039 under setting [2].

Consider UCCACCAACACCUUGCAUAGUAUUUAGUUA, for which the “pre-steady-state target cleavage rate” value amounted to 0.936 ± 0.044 under setting [1] and 0.0528 ± 0.0084 under setting [2].

Consider UCCUCCUACAGCUUGCAUACUAUUUAGUAA, for which the “pre-steady-state target cleavage rate” value was found to be 0.152 ± 0.02 under setting [1] and 0.0139 ± 0.0028 under setting [2].

UCCACCUACAGCAUGCAUUGUAUUUAGUUA: the “pre-steady-state target cleavage rate” value under setting [1] turned out to be 0.648 ± 0.023 and the “pre-steady-state target cleavage rate” value under setting [2] was 0.00892 ± 0.0024.

As for UGGACCUUCAGCUAGCAUAGUAUUUAGUUA, the “pre-steady-state target cleavage rate” value under setting [1] turned out to be 1.26 ± 0.055 and the “pre-steady-state target cleavage rate” value under setting [2] stood at 0.0323 ± 0.0066.

As for UCCUGGAUGAGCUUGCAUAGUAUUUAAUUA, the “pre-steady-state target cleavage rate” value was 0.139 ± 0.027 under setting [1] and 0.015 ± 0.0037 under setting [2].

As for UGGACCUACAGCUUGCAUAGUAUUCUAGUUA, the “pre-steady-state target cleavage rate” value under setting [1] was 0.571 ± 0.069 and the “pre-steady-state target cleavage rate” value under setting [2] came out at 0.0433 ± 0.011.

For UCCUGGAUCACCUUGCAUAGUAUUUUGUUA, the “pre-steady-state target cleavage rate” value under setting [1] was found to be 0.161 ± 0.025 and the “pre-steady-state target cleavage rate” value under setting [2] is 0.00453 ± 0.002.

UGGACCUUCAGCUUGCAUACUAUUUAGUUA: the “pre-steady-state target cleavage rate” value is, setting by setting: under setting [1], 0.321 ± 0.019; under setting [2], 0.035 ± 0.0073.

As to ACGACCUACAGCUUGCAUAGUAUUUAGUAA, the “pre-steady-state target cleavage rate” value is, setting by setting: under setting [1], 1.11 ± 0.042; under setting [2], 0.0771 ± 0.016.

For UCCACCUACAGCUUGCAUAGUUUUUAGAUA, the “pre-steady-state target cleavage rate” value was 0.16 ± 0.029 under setting [1] and 0.0077 ± 0.0023 under setting [2].

Consider UCCUGGUACUGCUAGCAUAGUAUUUAGUUA, for which the “pre-steady-state target cleavage rate” value reads like this: under setting [1], 0.462 ± 0.044; under setting [2], 0.00832 ± 0.0021.

Consider UCCUGGUACUGCUUGCAUAGUAUUUAGUAA, for which the “pre-steady-state target cleavage rate” value is, setting by setting: under setting [1], 0.188 ± 0.03; under setting [2], 0.0151 ± 0.0045.

On to UCCUGGAUGAGCUUAGCAUAGUAUUUAGUUA, for which the “pre-steady-state target cleavage rate” value by setting is: under setting [1], 0.55 ± 0.033; under setting [2], 0.0102 ± 0.0031.

With UCCUGGAUGAGCUUGCAUAGUAUUAUGUUA, the “pre-steady-state target cleavage rate” value runs as follows: under setting [1], 0.194 ± 0.027; under setting [2], 0.0102 ± 0.0042.

Consider UGGACCUACAGCUUGCAUAGUAAUUUAGUUA, for which the “pre-steady-state target cleavage rate” value came out at 0.131 ± 0.013 under setting [1] and 0.0131 ± 0.0024 under setting [2].

For the sequence UCCUGCUACAGCUUGCAUAGUAUUAUGUUA, the “pre-steady-state target cleavage rate” value is, setting by setting: under setting [1], 0.452 ± 0.063; under setting [2], 0.0114 ± 0.0032.

As for UCCACCUACAGCUUGCUUAGUAUUUAGAUA, the “pre-steady-state target cleavage rate” value reads like this: under setting [1], 0.272 ± 0.035; under setting [2], 0.00853 ± 0.0027.

UCCACCAACAGCUUGCAUAGUAUUUUGUUA: the “pre-steady-state target cleavage rate” value under setting [1] came out at 0.413 ± 0.042 and the “pre-steady-state target cleavage rate” value under setting [2] was found to be 0.0276 ± 0.0037.

In the case of UCGACCUACAGCUUGCAUUCUAUUUAGUUA, the “pre-steady-state target cleavage rate” value under setting [1] turned out to be 0.356 ± 0.021 and the “pre-steady-state target cleavage rate” value under setting [2] worked out at 0.00761 ± 0.003.

In the case of UCGACCAACAGCUUGCAUAGUAUUUUGUUA, the “pre-steady-state target cleavage rate” value by setting is: under setting [1], 0.939 ± 0.043; under setting [2], 0.0471 ± 0.0068.

Turning to UCCUGCUACAGGUUGCAUACUAUUUAGUUA, the “pre-steady-state target cleavage rate” value was 0.255 ± 0.026 under setting [1] and 0.0186 ± 0.0041 under setting [2].

For UCCUGGAUGAGCUUGCAUAGUAUAUAGAUA, the “pre-steady-state target cleavage rate” value turned out to be 0.11 ± 0.023 under setting [1] and 0.00493 ± 0.0023 under setting [2].

Take UCCUCCUACAGCUUGCAUAGUAUUUAGGUA: the “pre-steady-state target cleavage rate” value reads like this: under setting [1], 0.342 ± 0.074; under setting [2], 0.00586 ± 0.0028.

With UCCUGGAUGAGCUUGCGUAGUAUUUAGUUA, the “pre-steady-state target cleavage rate” value is 0.898 ± 0.044 under setting [1] and 0.0334 ± 0.01 under setting [2].

Consider UCCUGGAACAGCUUGCAUAGUAUUUACUAA, for which the “pre-steady-state target cleavage rate” value runs as follows: under setting [1], 0.124 ± 0.022; under setting [2], 0.0106 ± 0.0047.

On to UGGACCUAGUGCUUGCAUAGUAUUUAGAAA, for which the “pre-steady-state target cleavage rate” value came to 0.0381 ± 0.0062 under setting [1] and 0.0041 ± 0.0021 under setting [2].

As to UCCUGCUACAGCUUGCAUAGUAUUUGGUUA, the “pre-steady-state target cleavage rate” value came out at 0.754 ± 0.06 under setting [1] and 0.0301 ± 0.0052 under setting [2].

As for UCCACCUACAGAUUGCAUAGUAUUUAGUUA, the “pre-steady-state target cleavage rate” value is 1.07 ± 0.15 under setting [1] and 0.0219 ± 0.0041 under setting [2].

Take UCCACCUACUGCUAGCAUAGUAUUUAGUUA: the “pre-steady-state target cleavage rate” value under setting [1] amounted to 0.704 ± 0.032 and the “pre-steady-state target cleavage rate” value under setting [2] stood at 0.0179 ± 0.0032.
